Test results reported in PMC6919601, “Identification of Plasmodium dipeptidyl aminopeptidase allosteric inhibitors by high throughput screening” (PLoS ONE, 2019).
In all, about 110,000 compounds went through this assay and about 230 (0.21%) showed an effect of 50% or more. The list shows a part of the results.

Biological target: DPAP1 (Plasmodium falciparum, UniProt Q8IIJ9)
Test: primary screen, percent inhibition; read by cleavage of a fluorogenic dipeptide substrate; higher = more effect of the substance
Design: species or system P. falciparum D10 trophozoite lysates; single well
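Note: 30 min substrate incubation versus DMSO and 10 µM JCP410 controls.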

Chain of DPAP1 (Q8IIJ9 whole entry, looked up): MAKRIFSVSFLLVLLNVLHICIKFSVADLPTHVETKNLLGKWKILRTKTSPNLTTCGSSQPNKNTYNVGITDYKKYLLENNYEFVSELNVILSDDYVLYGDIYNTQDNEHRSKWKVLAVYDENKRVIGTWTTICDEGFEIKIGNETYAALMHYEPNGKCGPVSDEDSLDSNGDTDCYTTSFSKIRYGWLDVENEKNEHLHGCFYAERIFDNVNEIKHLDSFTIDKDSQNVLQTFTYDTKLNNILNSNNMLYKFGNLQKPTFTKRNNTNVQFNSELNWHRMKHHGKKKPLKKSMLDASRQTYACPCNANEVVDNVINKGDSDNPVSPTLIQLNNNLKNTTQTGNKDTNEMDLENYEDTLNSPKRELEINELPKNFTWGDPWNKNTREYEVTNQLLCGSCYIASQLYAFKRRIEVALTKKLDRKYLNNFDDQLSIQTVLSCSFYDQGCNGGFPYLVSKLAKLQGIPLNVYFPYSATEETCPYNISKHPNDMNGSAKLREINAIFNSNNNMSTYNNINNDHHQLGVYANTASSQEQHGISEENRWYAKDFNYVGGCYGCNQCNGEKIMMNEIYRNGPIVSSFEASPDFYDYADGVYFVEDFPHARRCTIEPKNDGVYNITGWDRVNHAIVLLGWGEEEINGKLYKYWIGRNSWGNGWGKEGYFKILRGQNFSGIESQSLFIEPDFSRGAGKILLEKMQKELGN

Row | SMILES | % Inhibition @ 10 uM
1 | Cc1cc(C)n(Cc2ccc(C(=O)NCc3cccs3)o2)n1 | -6.79%
2 | CC(Cc1ccccc1F)NCCN1CCOCC1 (centres unmarked) | 0.0792%
3 | Cc1cccc(NC(=O)CN2C(=O)N/C(=C/c3cc(C)n(C(C)C)c3C)C2=O)c1 | 9.01%
4 | Cc1cc(C)n2nc(SC(C)C(=O)NCc3cccs3)nc2n1 (centres unmarked) | -0.519%
5 | Cc1onc(-c2ccccc2)c1C(=O)Nc1ccc(S(=O)(=O)NC(C)(C)C)cc1 | 4.03%
6 | Cc1cc(C(=O)O)cc(S(=O)(=O)Nc2ccccc2)c1C | 1.34%
7 | COc1cc(OC)cc(C(=O)Nc2ccc(C(=O)c3ccccc3)cc2)c1 | -4.15%
8 | CCSC1=C(C#N)C2(CCCCC2)C2=C(O)CC(C)(C)CC2=N1 | 12.4%
9 | CCN(CC)C(=O)CSc1nc2ccccc2c(O)c1C(=O)OC | 1.68%
10 | COC(=O)c1sc2nc(-c3ccccc3)cc(-c3ccc(OC)cc3)c2c1N | 2.79%
11 | O=C1C2CC=C(Cl)CC2C(=O)N1CC[n+]1ccccc1 (centres unmarked) | -1.1%
12 | CCCc1cc(C(=O)Nc2ccn(Cc3ccc(C)cc3)n2)no1 | -3.77%
13 | N#CC1=C(SCc2ccccc2)NC(=O)CC1c1ccc(Br)cc1 (centres unmarked) | 1.38%
14 | CCc1nnc(NC(=O)C2CCCN(c3nnc(-n4cccc4)s3)C2)s1 (centres unmarked) | -0.707%
15 | Cc1cccc(N2CCN(C(=O)CN3C(=O)c4ccccc4C3=O)CC2)n1 | 1.88%
16 | Clc1ccc(OCCN2CCN(c3nc4ccccc4c4nc(-c5cccnc5)nn34)CC2)cc1 | -4.21%
17 | CCOc1ccc(C2C(C#N)=C(N)Oc3[nH]nc(C)c32)cc1Br (centres unmarked) | 3.95%
18 | O=C(O)c1cc2cccc(O)c2oc1=O | -2.41%
19 | CN1CCc2nc(S)c(C#N)c(-c3cccs3)c2C1 | -0.25%
20 | O=C1C(=O)N(CNc2ccccc2Cl)c2ccccc21 | -0.105%
21 | Cc1ccc(C(C)C)c(OCC(O)Cn2cnc3ccccc32)c1 (centres unmarked) | -8.67%
22 | CC(C)OCCCNC(=O)c1cc2cc3ccc(Cl)cc3nc2o1 | 1.9%
23 | Cc1cc(C)n(C(C)CC(=O)NCc2ccc(OC(C)C)cc2)n1 (centres unmarked) | -5.33%
24 | Cc1cc(=O)n2nc(-c3ccc([N+](=O)[O-])cc3)sc2n1 | -0.902%
25 | CCN1CCC(NCc2cccc(C(F)(F)F)c2)CC1 | 3.48%

Row | SMILES | % Inhibition @ 10 uM
26 | O=C(Nc1ccc(Cl)c(Cl)c1)c1ccc(C(=O)Nc2ccc(Cl)c(Cl)c2)cc1 | 0.526%
27 | COc1ccc(S(=O)(=O)N(C)CC(=O)Nc2ccc(Cl)c(C(F)(F)F)c2)cc1OC | 2.84%
28 | Cc1c(Cl)cccc1NC(=O)COc1ccc(S(=O)(=O)NC(C)(C)C)cc1 | 4.44%
29 | CC(=O)Nc1cccc(C(=O)Nc2ccc(NC(C)=O)c(Cl)c2)c1 | -10.6%
30 | CCOc1ccccc1NC(=O)c1ccoc1C | -1.89%
31 | COc1ccc(C2Oc3ccccc3C3CC(c4cccs4)=NN32)cc1O (centres unmarked) | 39.5%
32 | CN1CCCC1CCNC1CCN(CCc2ccccc2)CC1 (centres unmarked) | -2.95%
33 | CC(=O)c1ccc(NC(=O)CN2C(=O)C3C4c5ccccc5C(c5ccccc54)C3C2=O)cc1 (centres unmarked) | 1.72%
34 | Cc1cc(N2CCN(Cc3ccc4c(c3)OCO4)CC2)n2nc(C)c(-c3ccc(Cl)cc3)c2n1 | 0.51%
35 | Cc1cc(C(=O)NCCC2=CCCCC2)c2c(C)nn(-c3ccccc3)c2n1 | 3.75%
36 | CCn1cc(C(=O)Nc2nccs2)c(=O)c2ccc(C)nc21 | 1.32%
37 | O=C(NCc1nc(-c2ccccc2)no1)c1ccccc1-c1ccccc1 | 0.486%
38 | Cc1onc(-c2ccccc2Cl)c1C(=O)N1CC(C)CC(C)C1 (centres unmarked) | -3.27%
39 | O=C(O)c1ccc(NS(=O)(=O)c2cccc(C(=O)Nc3ccccc3)c2)cc1 | -0.0217%
40 | CCCC12CN3CC(C)(CN(C1)C31CCCCC1)C2=O | 2.25%
41 | CC(NC(=O)/C(C#N)=C/c1ccc(Cl)c(Cl)c1)c1ccccc1 (centres unmarked) | 3.34%
42 | COC(=O)C1=CN(Cc2ccc(F)cc2)C=C(C(=O)OC)C1c1ccc(C(F)(F)F)cc1 | -1.46%
43 | O=S(=O)(NCCc1ccccc1)c1ccc(F)cc1 | -3.04%
44 | O=C(Cc1ccccc1)Nc1cccc(NC(=O)Cc2ccccc2)n1 | -6.79%
45 | O=C(c1ccc(F)cc1)N1N=C(c2ccccc2)CC1c1ccc2c(c1)OCO2 (centres unmarked) | -5.82%
46 | CCOC(=O)c1oc2ccc3c(c2c1C)C(=O)CC(C)(c1ccc(F)cc1)O3 (centres unmarked) | 4.79%
47 | Cc1cc(C)n(CC(=O)n2c(C)c(C)c3ccccc32)n1 | 0.884%
48 | O=c1c(-c2ccccc2)c(O)c2c(n1-c1ccccc1)CCCC2 | -4.67%
49 | COc1ccc(N(CC(=O)Nc2ccccc2F)S(C)(=O)=O)cc1OC | 4.83%
50 | CCC(=O)c1ccc(N2CCN(C(=O)c3cccc(F)c3F)CC2)c(F)c1 | 1.59%
